Results reported in the supplement of paper PMC4604168 (melanoma cell lines).
The list shows a part of the results. Most values come without repeats; read them as rough.
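Also: cells treated in 1,536-well plates, then fixed and DAPI-stained, with nuclei counted from automated high-throughput microscope images.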

These molecules were tested on A375 (assay: cell count relative to DMSO control; melanoma cells; higher = more viable cells). Details: library dose: standard library concentration; 72 h.
`O=C(CCCCCCC(=O)Nc1ccccc1)NO` [vorinostat] + CC1(C)NC(=O)N(c2ccc([N+](=O)[O-])c(C(F)(F)F)c2)C1=O [nilutamide] (first compound 0.4 µM, partner dose 5 µM) was tested, and the cell count was 101%.
Molecule `COCC[n+]1c2c(n(Cc3cnccn3)c1C)C(=O)c1ccccc1C2=O` + O=C(O)c1ccc(-c2c[nH]c3ncc(-c4ccccc4)cc23)cc1C1CCCC1 [GSK650394] (first compound 0.002 µM, partner dose 0.8 µM) has a cell count of 92%.
`C#Cc1cccc(Nc2ncnc3cc(OCCOC)c(OCCOC)cc23)c1` [erlotinib] + C[C@@H]1CCN(C(=O)CC#N)C[C@@H]1N(C)c1ncnc2[nH]ccc12 [CP690550] (first compound 4 µM, partner dose 5 µM) gave a cell count of 108%.
Molecule `COCC[n+]1c2c(n(Cc3cnccn3)c1C)C(=O)c1ccccc1C2=O` + CN(NC(=O)CC(=O)NN(C)C(=S)c1ccccc1)C(=S)c1ccccc1 [STA4783] (first compound 0.002 µM, partner dose 0.03 µM) has a cell count of 91.9%.
With `Cn1c(Nc2ccc(C(F)(F)F)cc2)nc2cc(Oc3ccnc(-c4ncc(C(F)(F)F)[nH]4)c3)ccc21` + CO[C@@H]1[C@H](N(C)C(=O)c2ccccc2)C[C@H]2O[C@]1(C)n1c3ccccc3c3c4c(c5c6ccccc6n2c5c31)C(=O)NC4 [Midostaurin] (first compound 0.4 µM, partner dose 0.4 µM) the cell count was 45.8%.
In the case of `C#Cc1cccc(Nc2ncnc3cc(OCCOC)c(OCCOC)cc23)c1` [erlotinib] + NC(=O)Nc1cc(-c2cccc(F)c2)sc1C(=O)N[C@H]1CCCNC1 [AZD7762] (first compound 4 µM, partner dose 0.1 µM), the cell count is reported as 53.2%.
`OCc1c[nH]c2ccccc12` [Indole-3-carbinol] + O=C(Nc1cccc(Cl)c1)Nc1ncc(CCNc2ncnc3ccsc23)s1 [SNS314] (first compound 4 µM, partner dose 0.004 µM) gave a cell count of 94.8%.
Molecule `Clc1ccc(Nc2nnc(Cc3ccncc3)c3ccccc23)cc1` [vatalanib] + Nc1cccc2c1CN(C1CCC(=O)NC1=O)C2=O [lenalidomide] (first compound 10 µM, partner dose 5 µM) has a cell count of 99.2%.
`COCC[n+]1c2c(n(Cc3cnccn3)c1C)C(=O)c1ccccc1C2=O` + O=C(Nc1cccc(Cl)c1)Nc1ncc(CCNc2ncnc3ccsc23)s1 [SNS314] (first compound 0.002 µM, partner dose 0.004 µM) gave a cell count of 84.8%.
